B1: CPEB3 Ribozyme (parent)
chain: UAACAGGGGGCCACAGCAGAAGCGUUCACGUCGCAGCCCCUGUCAGAUUCUGGUGAAUCUGCGAAUUCUGCUGUAUAUCUC

The source gives no read counts; variants with many changes may rest on few reads.

Drawing on the RNAGym collection of RNA variant scans (doi:10.1093/nar/gkz1192), this text covers self-cleavage for 34 variants.

Variants of B1 are the subject of this series. In words: self-cleavage, relative activity (ratio to wild type); higher = more cleavage; in vitro, sequencing. Summed up: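 Relative activity compares each variant's cleaved/total read fraction with that of the unmutated ribozyme. To get these fractions, barcoded CPEB3 ribozyme libraries from rounds of error-prone PCR were transcribed with T7 RNA polymerase for 5 hours at 37°C and then given 15 min of DNase I treatment before EDTA was added. The RNAs were reverse transcribed with template switching and sequenced on Illumina, and DNA sequencing linked barcodes to variants. A minimum of 5 reads applied, and three batches were averaged.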
With UAACAAGGGGCCACAGCCGAAGCGUUCACGUCGCAGCCCCCGUCAGAUUCUGGUGAAUCUGCGAACUCUGCUGUAUAUCUC [G6A A18C U41C U66C], the self-cleavage turned out to be 0.09.

Regarding UAACAAGGGGCCACGGCAGAAGCGUACACGUCGCAGCCCCGGUCCGAUUCUGGUGAAUCUGCGGAUUCUGCUGUAUAUCUC [G6A A15G U26A U41G A45C A64G], the self-cleavage is 0.06.

For the variant UAACAAGGGGCCACUGCAGAAGGGUUCGCGUCGCAGCCCCCGUCAGAUUCUGGUGAAUCUGCGAAUUCUGCUGUAUAUCUC [G6A A15U C23G A28G U41C], the self-cleavage was determined as 0.35.

UAACAAGGGGCCACAGCAGACGCGUUCACGUCGGAGCCCCUGUCAGAUUCUGGUGAAUCUGCGAAUUCUGCUGUAUAUCUC [G6A A21C C34G]: the self-cleavage is 0.07.

Regarding UAACAAGGGGCCCCAGCAGAAGCGUUCACGUCGCAGCCUCUGUCGGUUUCUGGUGAAUCUGCGAAUUCUGCAGUAUAUCUC [G6A A13C C39U A45G A47U U72A], the self-cleavage was found to be 0.05.

For UAACAAGGGGCCGCAGCAGAAGCGUUCACGUCGCAGCCCCUGUCCGAUUCUGGUGAAUCUGCGAAUUCUGCCGUAUACCUC [G6A A13G A45C U72C U78C], the self-cleavage was determined as 0.16.

As for UAACAAGGGGCCACAGCAGACGCGUUCACGUCGCAGCCCCUGUCAGUUUCUGGUGUAUCUGCGUAUCCUGCUGUAUAUCUC [G6A A21C A47U A56U A64U U67C], the self-cleavage was 0.07.

Turning to UAACAAGGGGCCACAGCUGAAGCGUUCACGUCGCAGCCCCUGUCAGAUUCUGGUGGUUUUGCGAAUUCUGCUGUGUAUCUC [G6A A18U A56G A57U C59U A75G], the self-cleavage is 0.06.

On to UAACAAGGGGCCGCAGCUGAAGCGUUCACGUCGCAGCCCCUGUCAGAUUCUGGUGAAUCUGCGAAUUCUGCUGUAUAUCUC [G6A A13G A18U], for which the self-cleavage worked out at 0.31.

Regarding UAACAAGGGGCCUCAGCGGAAGCGUUCACGUCGCAGCCCCUGUCAGAUUCUGGUGAUUCUGCGUAUUCUGCUGUAUAUCUC [G6A A13U A18G A57U A64U], the self-cleavage is 0.31.

Turning to UAACAAGGGGCCACAGCAGAAGCGUUCUCGUCGCUGCCCCAGUCAGAUUCUGGUGAAUCUGCGAAUUCUGCUGUAUAUCUC [G6A A28U A35U U41A], the self-cleavage is 0.23.

Take UAACAAGGGGCCUCAGCAGAAGCGUUCACGUCGUAGCCCCUGUCAGAUUCUGGUGAAUCUGCGAAUUCUGCUGUAUUUCUC [G6A A13U C34U A77U]: the self-cleavage stood at 0.33.

On to UAACAAGGGGCCACAGCAGAAGCGUUCACGUCGCAGCCCCUGUCAGGUUCUGGUGAAUCUGCGAAUUCAGAUGUAUAUCUC [G6A A47G U69A C71A], for which the self-cleavage is 0.31.

On to UAACAAGGGGCCACGGCAGAAGCGUUCACGUCGCAGCCCCUGUCAGAUUCAGGUGAAUCUGCGAAUUCUGCUGUUUAUCCC [G6A A15G U51A A75U U80C], for which the self-cleavage is 0.28.

Turning to UAACAAGGGGCCACAGCAGGAGCGUUCACGUCGCAGCCCCUGUCAGAUACUGGUGAAUCUGCGAAUUCUGCUGUAUAUCUC [G6A A20G U49A], the self-cleavage was 0.09.

Regarding UAACAAGGGGCCACAGCUGAAGCGUUCACGUCGCUGCCCCUGUCAGAUUCCGGUGAAUCUGCGAAUUCUGCAGUACAUCUC [G6A A18U A35U U51C U72A U76C], the self-cleavage is 0.09.

For UAACAAGGGGCCACAGCAGAAGCGUUCGCGUCGUAGCCCCUGUCAAAUUCUGGCGAAUCUGCGAGUUCUGCUGUAUAACUC [G6A A28G C34U G46A U54C A65G U78A], the self-cleavage came out at 0.09.

As for UAACAAGGGGCCACAGCAGAAGCGUUCGCGUCGCAGCCCCUGUCAGAUUCUGAUGAAUCUGCGUAUCCUGCUGUACAUCUC [G6A A28G G53A A64U U67C U76C], the self-cleavage stood at 0.04.

UAACAAGGGGGCUCAGCAGAUGCGUUCAUGUCGCGGCCCCUGUCAGAUUCUGGUGAAUCUGCGAAUUCUGCUGUAUAUCUC [G6A C11G A13U A21U C29U A35G]: the self-cleavage was 0.22.

For UAACAAGGGGCCACGGCAGGUGCGUCCACAUCGCAGCCCCUGUCAGAUUCUGGUGAAUCUGCGAAUUCAGCUGUAUAUCUC [G6A A15G A20G A21U U26C G30A U69A], the self-cleavage is 0.3.

Turning to UAACAAGGGGCCACAGCGGAAGCGUUCACGUCGCAGCCCCUGUCAGAUUCUGGUGAGUCUGCGAAUUCUGCUGUAUAUCUC [G6A A18G A57G], the self-cleavage is 0.22.

In the case of UAACAAGGGGCCCCAGCAGAAGCGUUCACGUCGCGGCCCCUGUCAGAUUCUGGUGAAUCUGCGAAUUCUGCUGUAUAUCUC [G6A A13C A35G], the self-cleavage stood at 0.38.

As to UAACAAGGGGCCACAGCAGAAGCGUUCACGUCGCAGCCCCUGUCAGGUUAUGGUGAAUCCGCGAAUUCUGCUGUAUAUCUC [G6A A47G C50A U60C], the self-cleavage came out at 0.06.

As to UAACUGGGGGCCACAGCAGAAGCGUUCACGUCGCAGCCCCUGUCAGAUUCUGGCGAAUCUGCGAAUUCUGCUGUAUAUCCC [A5U U54C U80C], the self-cleavage turned out to be 1.09.

In the case of UAACAAGGGGCCACAGCAGUAGCGUUCACGUCGCAGCCCCUGUCAGAUUCCGGUGAAUCUGCGAAUUCUGCUGUAUAUCUC [G6A A20U U51C], the self-cleavage amounted to 0.41.

As to UAACAAGGGGCCGCAGCAGAAGCGUUCACGUCGCGGCUCCUGUCAGAUUCUGGUGAAUCUGCGAAUGCUGCUGUAUAUCAC [G6A A13G A35G C38U U67G U80A], the self-cleavage amounted to 0.06.

For the variant UAACAAGGGGCCACAGCAGAAGCGUUCGCGUCGCAGCCCCUGUCAGAUUCUGGUGAAUCUGCGAAUUCCGCUGUAUAUCUC [G6A A28G U69C], the self-cleavage is 0.17.

With UAACAAGGGGCCGCAGCAGAAGCGUUCACGUCGCAGCCCCUGUCAGAUUCUGGUCAAUCUGCGUAUUCUGCUGUACAUCUC [G6A A13G G55C A64U U76C], the self-cleavage stood at 0.07.

Turning to UAACAAGGGGCCACAGCAGAGGCGUUCACGUCGCAGCCACUGUCAGAUUCUGGCGAAUCUGCGAAUUCUGCUGUAUAUCUC [G6A A21G C39A U54C], the self-cleavage is 0.31.

Consider UAACAAGGGGCCACAGCAGGGGCGUUCACGUCGCAGCCCCUGUCAGAUUCAGGUGAAUCUGCGAACUCUGCUGUAUAUCUC [G6A A20G A21G U51A U66C], for which the self-cleavage turned out to be 0.21.

As to UAACAAGGGGCCACAGCAGAAGCGUUCACGUCGCAGCCCCUGUCGGAUUCUGGUGAACCUGCGGAUUCUGCAGUAUAUCCC [G6A A45G U58C A64G U72A U80C], the self-cleavage was 0.03.

Regarding UAACAAGGGGCCACAGCAGGAGCGUUCACGCCGCAGCCCCUGUCAGAUUCUGGUGAAGCUGCGAAUUCUGCUGUAUAUCUC [G6A A20G U31C U58G], the self-cleavage is 0.04.

Take UAACAAGGGGCCACGGCAGAAGCGUUCACGUCGCAGCCCCUGUCAGAUUCUGGUGAAUCUGCGAGUUCUGCUGCACAUCUC [G6A A15G A65G U74C U76C]: the self-cleavage is 0.14.

In the case of UAACAAGGGGCCACAGCAGAGGCGUUCACGUCGCAGCCCCUGUCAGAUUCUGGUGAAUCAGCGAAUUCUGCUGUAUAUCUC [G6A A21G U60A], the self-cleavage is 0.03.
